Experimental data taken from publication PMC3691018 (Bioorganic & medicinal chemistry letters, 2013).

Experiments:
S. aureus helicase [1] = target: T1, S. aureus helicase (Staphylococcus aureus, UniProt Q2G1S4); type: biochemical; conditions: malachite green detection
T1 sequence (Q2G1S4 1-466): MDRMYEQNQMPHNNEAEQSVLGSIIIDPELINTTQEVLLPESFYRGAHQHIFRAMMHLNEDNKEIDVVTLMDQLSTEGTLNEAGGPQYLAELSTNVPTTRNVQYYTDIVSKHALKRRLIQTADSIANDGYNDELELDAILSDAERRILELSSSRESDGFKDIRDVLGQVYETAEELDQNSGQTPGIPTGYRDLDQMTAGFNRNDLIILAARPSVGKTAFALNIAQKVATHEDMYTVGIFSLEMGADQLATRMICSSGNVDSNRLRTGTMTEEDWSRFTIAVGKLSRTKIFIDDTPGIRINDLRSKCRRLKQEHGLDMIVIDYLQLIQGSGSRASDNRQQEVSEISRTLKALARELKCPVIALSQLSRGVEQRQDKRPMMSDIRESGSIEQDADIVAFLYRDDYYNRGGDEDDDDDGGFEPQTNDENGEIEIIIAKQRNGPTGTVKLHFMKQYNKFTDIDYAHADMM

S. aureus helicase [2] = target: T1, S. aureus helicase; experiment: biochemical
[3] = target: T2, S. aureus DNA replicative helicase (Staphylococcus aureus, UniProt Q2G1S4); type: biochemical
T2 sequence (Q2G1S4 1-466): T1 sequence (Q2G1S4 1-466)

SMILES | Activity vs S. aureus helicase (in words) [3] | further results
CNc1nc2ccc3nc(NC(=O)c4cccc(OC)c4)sc3c2s1 [Compound 49] |  | Inhibition of single-stranded DNA stimulated ATPase activity (S. aureus helicase [1]): failed to exhibit significant inhibition; IC50 (S. aureus helicase [2]): 2000 to 3800 nM; Variation of IC50 in response to changes in ATP concentration (S. aureus helicase [2]; varying ATP concentration): less than 2 fold; Variation of IC50 when oligonucleotide concentrations were altered (S. aureus helicase [2]; varying oligonucleotide (DNA) concentration): > 6.5 fold; Mode of inhibition (S. aureus helicase [2]; versus ATP and DNA substrate): noncompetitive with ATP but competitive with the DNA substrate
COc1cccc(C(=O)Nc2nc3ccc4nc(NC(C)C)sc4c3s2)c1 [Compound 51] | significantly reduced activity | 
COc1cccc(C(=O)Nc2nc3ccc4nc(NCC(C)C)sc4c3s2)c1 [Compound 52] | modest inhibition | 
COc1cccc(C(=O)Nc2nc3ccc4nc(NC5CCCCC5)sc4c3s2)c1 [Compound 53] | significantly reduced activity | 
COc1cccc(C(=O)Nc2nc3ccc4nc(NCc5ccccc5)sc4c3s2)c1 [Compound 54] | significantly reduced activity | 
CNc1nc2ccc3nc(NC(=O)c4cc(OC)c(OC)c(OC)c4)sc3c2s1 [Compound 59] |  | Inhibition of single-stranded DNA stimulated ATPase activity (S. aureus helicase [1]): failed to exhibit significant inhibition
COc1cc(CNc2nc3ccc4nc(SC)sc4c3s2)cc(OC)c1OC [Compound 64] | lost activities | 
COc1cc(/C=N/c2nc3ccc4nc(SC)sc4c3s2)cc(OC)c1OC [Compound 65] | lost activities | 
